Screen size: about 390,000 compounds; about 4,700 (1.2%) were called active. This list was built around the results that the source calls inconclusive (neither active nor inactive); the mix of calls is not that of the screen. The call rests on the fitted dose curve; in most records, active means well fitted inhibition curve with a large enough effect; inconclusive means small, poorly fitted or top-dose-only effect, or another doubt; inactive means no such curve, though single readings can be large or run the other way. Potencies beside an inconclusive call are fits to weak or partial responses and may not hold up.
The molecules below were run against DNA polymerase eta (Homo sapiens) (UniProt Q9Y253) (assay: qHTS for Inhibitors of Polymerase Eta). Details: recombinant Pol eta, fluorescent DNA replication assay; series mostly up to 114 µM.
Procedure, shortened: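 Pol eta at 10 nM preincubated with compounds 15 min at room temperature; reaction started with fluorescent substrate (50 nM final) and read kinetically at 0 and 10 min.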
Potency means the concentration at half of the fitted maximal effect; tags describe the fitted curve by direction and shape.

Sequence of UniProt Q9Y253 (Q9Y253 whole entry, looked up): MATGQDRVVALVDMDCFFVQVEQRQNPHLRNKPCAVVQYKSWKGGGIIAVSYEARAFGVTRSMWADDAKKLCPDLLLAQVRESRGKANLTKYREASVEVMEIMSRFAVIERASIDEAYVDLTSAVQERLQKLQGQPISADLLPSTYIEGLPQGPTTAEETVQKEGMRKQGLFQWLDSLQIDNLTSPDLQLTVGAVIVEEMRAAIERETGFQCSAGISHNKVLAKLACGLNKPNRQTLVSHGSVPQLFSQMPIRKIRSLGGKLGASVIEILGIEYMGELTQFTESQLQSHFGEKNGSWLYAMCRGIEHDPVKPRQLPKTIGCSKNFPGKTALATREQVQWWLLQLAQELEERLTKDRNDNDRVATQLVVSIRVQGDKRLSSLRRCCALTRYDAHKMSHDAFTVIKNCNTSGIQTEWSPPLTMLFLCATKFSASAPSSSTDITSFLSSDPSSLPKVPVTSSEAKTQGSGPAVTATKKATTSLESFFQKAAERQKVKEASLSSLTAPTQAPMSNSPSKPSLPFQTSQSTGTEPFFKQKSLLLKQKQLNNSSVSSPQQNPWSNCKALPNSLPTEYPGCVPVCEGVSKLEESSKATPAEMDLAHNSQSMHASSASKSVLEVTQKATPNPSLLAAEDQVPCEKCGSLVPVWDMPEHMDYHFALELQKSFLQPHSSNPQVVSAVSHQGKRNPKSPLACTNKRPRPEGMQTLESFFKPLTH

Structure (SMILES)	Potency
CCNc1nc(NCC)nc(SCCOC(=O)Nc2ccccc2)n1	inconclusive: 89.1 µM [inhibitor, partial curve, poor fit]
C=C(C)C(=O)Nc1cccc(C2=NOC3(C2)C[C@@H](C(N)=O)N(C(=O)c2cc([N+](=O)[O-])cc([N+](=O)[O-])c2C)C3)c1 (some centres undefined)	active: 12.6 µM
O=C(COC(=O)c1ccc([N+](=O)[O-])s1)NC(c1ccccc1)c1ccccc1	inactive
Nc1c2c(nc3sc4c(c13)CCCCC4)CCCCC2	inconclusive: 28.2 µM [inhibitor, single point]
CCOc1ccc2c(c1)c(=O)c(S(=O)(=O)c1ccc(C)cc1)cn2Cc1ccccc1Cl	inactive
COC(=O)C[N+](C)(C)CC#Cc1ccccc1	inconclusive: 100 µM [inhibitor, single point]
CC1=C(C(=O)OC(C)C)C(c2ccc(Cl)cc2)n2c(s/c(=C\c3ccc(OCC(=O)O)cc3)c2=O)=N1 (centres undefined)	active: 8.91 µM
CCOC(=O)C1=C(C)NC(C)=C(C(=O)OCC)C1c1ccc(Br)o1	inconclusive: 0.316 µM [inhibitor, full curve, poor fit]
COc1cc(/C=C/C(=O)c2ccc(C)cc2)ccc1OCC#N	inconclusive: 39.8 µM [inhibitor, partial curve, poor fit]
CCC[C@@H]1C[C@@]1(CCC)[C@@H](NP(=O)(c1ccccc1)c1ccccc1)c1ccc(C(=O)OC)cc1	inconclusive: 39.8 µM [inhibitor, partial curve, poor fit]
Cc1c(OCC(=O)N[C@H](C(=O)O)c2ccccc2)ccc2c3c(c(=O)oc12)CCCC3	active: 56.2 µM
Cc1cc(NS(=O)(=O)c2ccc(NC(=O)c3ccc([N+](=O)[O-])s3)cc2)nc(C)n1	inconclusive: 0.316 µM [inhibitor, full curve, poor fit]
Cc1ccc(N=C2NC(=O)/C(=C\c3ccco3)S2)cc1	active: 14.1 µM
Cc1nn(-c2ccccc2)c(Cl)c1C(=O)NCc1cccs1	inconclusive: 10 µM [inhibitor, partial curve, poor fit]
O=C1N/C(=C/c2cccn2-c2ccccc2)C(=O)N1Cc1ccccc1F	inactive
Cc1ccc2cccc(S(=O)(=O)N3CCCc4ccccc43)c2n1	inactive
COc1ccccc1NC(=S)N/N=C/c1ccc(O)cc1	inconclusive: 89.1 µM [inhibitor, partial curve, poor fit]
N=c1c(C(=O)NC2CCCCC2)cc2c(=O)n3ccccc3nc2n1CC1CCCO1 (centres undefined)	inconclusive: 39.8 µM [inhibitor, partial curve, poor fit]
N#Cc1c(NC(=S)NC(=O)C2CCCC2)sc2c1CCCCC2	inconclusive: 50.1 µM [inhibitor, partial curve, poor fit]
O=C(COC(=O)c1ccc2c(c1)C(=O)N(Cc1ccncc1)C2=O)Nc1ccccc1[N+](=O)[O-]	inconclusive: 14.1 µM [inhibitor, full curve]
COc1cc(CN2CCCC(CO)(Cc3cccc(Cl)c3)C2)cc2c1OCO2 (centres undefined)	inconclusive: 79.4 µM [inhibitor, partial curve, poor fit]
CC(C)c1ccc(CNc2n[nH]c(-c3ccco3)n2)cc1	inactive

Structure (SMILES)	Potency
O=C(CCc1ccc(S(=O)(=O)N2CCOCC2)cc1)N/N=C/c1ccc(O)c(O)c1O	inconclusive: 8.91 µM [inhibitor, partial curve, poor fit]
CC(=O)c1cccc(NC(=O)CN2C(=O)C(=O)N(Cc3ccco3)C2=O)c1	active: 14.1 µM
COc1cccc(NC(=O)Cn2c(=O)n(-c3ccccc3)c(=O)c3c2c2cc(OC)ccc2n3C)c1	inactive
C=CC(=O)Nc1cccc(Oc2ccnc(Nc3ccc(N4CCN(C)CC4)cc3)n2)c1	inconclusive: 89.1 µM [inhibitor, partial curve, poor fit]
CN(CC(=O)NC(=O)Nc1ccccc1F)Cc1ccccc1F	inconclusive: 100 µM [inhibitor, partial curve, poor fit]
CCc1ncc(C(O)c2ccc(Cl)cc2)n1Cc1ccccc1 (centres undefined)	inactive
Cc1cc(NC(=O)C2CCCN(S(=O)(=O)c3cccc4nsnc34)C2)ccc1Br (centres undefined)	inconclusive: 79.4 µM [inhibitor, partial curve, poor fit]
Cn1cccc1C(=O)Nc1nc(-c2ccccn2)cs1	inconclusive: 7.94 µM [inhibitor, partial curve]
COc1ccccc1N1CCN(C(=O)CSc2ccc3c(C)cc(C)nc3n2)CC1	inconclusive: 25.1 µM [inhibitor, partial curve, poor fit]
CCc1ccc(NC(=O)C(=O)NCCc2sc3nc(-c4ccc(OC)cc4)nn3c2C)cc1	inactive
COc1ccc2oc(C(=O)OCC(=O)NCc3ccco3)c(C)c2c1	active: 50.1 µM
O=C1NCCCCC1NS(=O)(=O)c1cccc(C(F)(F)F)c1 (centres undefined)	inconclusive: 39.8 µM [inhibitor, single point]
CCCCN(C(=O)c1oc2ccc(OCC)cc2c1C)c1c(N)n(CCCC)c(=O)[nH]c1=O	inconclusive: 28.2 µM [inhibitor, single point]
Cc1ccc(NC(=O)c2c(NC(=O)C(F)(F)F)sc3c2CCCCC3)cc1	active: 50.1 µM
O=C(COC(=O)c1ccccc1Nc1cccc(C(F)(F)F)c1)NCc1ccco1	active: 20 µM
N#C/C(=C(/O)c1cccs1)c1nc2ccccc2[nH]1	inconclusive: 56.2 µM [inhibitor, partial curve, poor fit]
COc1ccc(-n2c(SC3CCOC3=O)nc3ccccc32)cc1 (centres undefined)	inconclusive: 22.4 µM [inhibitor, partial curve]
O=C(NN1C(=O)c2ccccc2NC1c1ccco1)c1ccc(Br)cc1 (centres undefined)	inconclusive: 100 µM [inhibitor, partial curve, poor fit]
COc1cc(C(C)=O)ccc1COc1ccc(C(=O)OCC(=O)NC2CCS(=O)(=O)C2)cc1OC (centres undefined)	inconclusive: 39.8 µM [inhibitor, single point]
COc1ccc(OCC(=O)Nc2ccc(-c3nc4cc(C)c(C)cc4o3)cc2)cc1	inconclusive: 70.8 µM [inhibitor, partial curve]
Cc1cc(O)c(-c2cc(C(=O)NCc3ccc4c(c3)OCO4)[nH]n2)cc1C	inconclusive: 17.8 µM [inhibitor, single point]
CS(=O)(=O)c1ccc(C(=O)Nc2nc(-c3ccco3)c(-c3ccco3)s2)cc1	active: 5.01 µM

Structure (SMILES)	Potency
COCCn1c(SCC(=O)c2ccc(CNC(C)=O)o2)nc2ccccc2c1=O	inconclusive: 28.2 µM [inhibitor, single point]
Cc1ccc(S(=O)(=O)NC(=O)c2cc(C)n(-c3cc(S(=O)(=O)N4CCOCC4)ccc3N3CCCC3)c2C)cc1	active: 89.1 µM
O=C(COC(=O)CCC(=O)c1cccs1)NCc1ccco1	active: 7.08 µM
COc1cc(OC)c(N(C)C(=O)c2sc3nc4n(c(=O)c3c2C)CCCCC4)cc1Cl	inactive
COc1ccccc1NC(=O)C1=C(C)Nc2nc(SCc3ccccc3)nn2C1c1ccccn1 (centres undefined)	inactive
O=C(O)C1CC=CCC1C(=O)N1CCc2ccccc21 (centres undefined)	inconclusive: 17.8 µM [inhibitor, partial curve, poor fit]
Cc1ccc(-c2nnc(Nc3ccc(Br)cc3)c3ccccc23)cc1S(=O)(=O)N1CCOCC1	inactive
COc1cc(-c2nc(-c3ccc(NC(=O)c4ccc(Br)o4)cc3)no2)cc(OC)c1OC	inconclusive: 89.1 µM [inhibitor, partial curve, poor fit]
O=C1c2cccc3c([N+](=O)[O-])ccc(c23)C(=O)N1Cc1cccnc1	inconclusive: 56.2 µM [inhibitor, partial curve, poor fit]
C=CCOC(=O)C1=C(C)NC(SCC(=O)OCC)=C(C#N)C1c1ccc(O)c(OC)c1 (centres undefined)	inconclusive: 15.8 µM [inhibitor, full curve]
Cc1cccc(NC(=O)C(C)SCc2nc3sc4c(c3c(=O)[nH]2)CCCC4)n1 (centres undefined)	inconclusive: 79.4 µM [inhibitor, partial curve]
COc1cccc(NC(=O)Cn2cc(C(=O)C3CCCCC3)c3ccccc32)c1	inactive
CC(C)c1ccc(/C=c2\sc3nc(-c4ccncc4)nn3c2=O)cc1	inconclusive: 12.6 µM [inhibitor, partial curve]
COc1cc(NC(=O)C(CC(C)C)NS(=O)(=O)c2ccc3c(c2)CCCC(=O)N3)cc(OC)c1 (centres undefined)	inconclusive: 89.1 µM [inhibitor, partial curve, poor fit]
O=C(Oc1ccc(F)cc1)c1ccc2c(=O)n3c(nc2c1)CCC3	inconclusive: 31.6 µM [inhibitor, partial curve, poor fit]
N#Cc1c(-c2cccs2)nc(SCC(=O)c2cccs2)[nH]c1=O	inconclusive: 15.8 µM [inhibitor, partial curve, poor fit]
Cc1ccccc1N1CCN(S(=O)(=O)Cc2ccccc2)CC1	inconclusive: 79.4 µM [inhibitor, single point]
CCOc1ccc(C2c3c(-c4ccc(C)cc4)n[nH]c3C(=O)N2c2ccc(Cl)cc2)cc1 (centres undefined)	inconclusive: 89.1 µM [inhibitor, partial curve, poor fit]
O=c1cc(-c2ccccc2F)oc2ccccc12	inactive
CCNC(=O)COc1ccc(S(=O)(=O)Nc2ccccc2)cc1	inconclusive: 100 µM [inhibitor, partial curve, poor fit]

Reference: PubChem BioAssay AID588591 (National Center for Advancing Translational Sciences (NCATS), 2011)
